Data: the RNAGym collection of RNA variant scans (doi:10.7554/elife.90254)
Read counts are not given, so values of variants with three or more changes are uncertain.

B1: LINE1-mini (parent)
chain: GGCAGAGCUCAACACAGCGUGGCAAAGUGGCUGUGGCUAGACUGCC

Variants of: B1
Experiment: self-cleavage, relative activity (ratio to wild type); higher = more cleavage; in vitro, sequencing; the parent is a self-cleaving ribozyme

| Variant | self-cleavage |
| --- | --- |
| A6C C23A U43G C45U | 0.02 |
| G5U G22A C23A | 0.02 |
| G5U C15U C18U A41G | 0.01 |
| G5U G21U A25G G30U | 0.02 |
| G5U U28A G30A | 0.07 |
| G5U C15U C18A C23G | 0.03 |
| G5U C13U G22C G35C | 0.03 |
| G5U C10U C37U | 0.02 |
| G5U C13G U38A | 0.07 |
| G5U U9C C18A | 0.05 |
| G5U U9G U43C | 0.02 |
| A6C A11C A14C G29U G36A C42G | 0.01 |
| G5U C15A G22U G44U | 0.02 |
| G5U C10A G19U U38C | 0 |
| A6C A12U G17A G40U | 0.01 |
| G5U C10U A26U | 0.03 |
| G5U G22U C42G | 0.03 |
| G5U C15G G44U | 0.04 |
| G5U C10A A11U C23A G36U | 0 |
| A6C G17U A26C | 0.97 |
| G5U U9G C10A C45G | 0.02 |
| G5U U9A C23A | 0.27 |
| A6C G7A C8U C23G | 0.15 |
| A6C C31U U38G G44U | 0.03 |

| Variant | self-cleavage |
| --- | --- |
| A6C C8G C10U G21A C23U G40U C42U | 0 |
| G5U A25G G33U C45U | 0.07 |
| G5U G19C G21C A41U C42U | 0.08 |
| A6C G17C G29A | 0.04 |
| G5U U20G A41U C45G | 0.04 |
| G5U U20A G40U | 0.01 |
| G5U C8G A14G G22U | 0.09 |
| G5U G19A G21U A26G U32C C46U | 0.03 |
| G5U G35C C42A | 0.07 |
| G5U C13G G35U | 0.17 |
| A6C G7A C10G A26C A39G | 0 |
| A6C C13G A39U | 0.03 |
| G5U C18A U34G A41C | 0 |
| G5U A25U G33U G35C | 0.07 |
| A6C C8G C13U G17A G35U C42U | 0.18 |
| G5U G36A C37U | 0.01 |
| G5U C18U G36C | 0.02 |
| A6C G7A U20C C42A | 0.1 |
| A6C A12C G35C | 0 |
| G5U C8A C15U G17A A25G | 0.29 |
| G5U U9C C23G A24G A26C | 0.01 |
| G5U C10A A25G | 0.02 |
| G5U G7C C42A | 0.18 |
| G5U G22C C42A | 0.53 |

| Variant | self-cleavage |
| --- | --- |
| A6C A16U G17C | 0.08 |
| G5U U9G C31U G33A | 0.13 |
| G5U G17A C23A G35A | 0.03 |
| G5U C8U C13U A24C A41G C45A | 0.18 |
| G5U C31U C37G | 0.04 |
| G5U G17U U32C C42A C46G | 0.05 |
| G5U C15G A24G | 0.03 |
| A6C C10A G17C G35C | 0.01 |
| A6C C8A C15G G27A U34C | 0.27 |
| G5U G27U U28G | 0.02 |
| A6C G7C G17C | 0.12 |
| G5U C18G U28G A41G | 0.04 |
| A6C C13A G19A G40C A41C | 0.07 |
| A6C C10U G22A C37A U38C | 0.02 |
| A6C A11G G17U G19C G44U C45U | 0 |
| G5U A25U G35A G36U C37A | 0.09 |
| G5U C13A A16G U28G | 0.02 |
| G5U A26C U38G | 0 |
| G5U G30C G33C | 0.03 |
| G5U G29C G40A | 0.02 |
| G5U C15U G29A G30U | 0.06 |
| G5U C10G C13A | 0.04 |
| G5U C10G G27A C31G C42A G44U C45U | 0.01 |
| G5U G30A G44C | 0.08 |

| Variant | self-cleavage |
| --- | --- |
| G5U G21U A24U G30C C31U | 0.05 |
| G5U G35C G40U | 0.02 |
| G5U C10A U20A G40A | 0.04 |
| A6C C8U U32G | 0.08 |
| G5U G19U G22C G44C | 0.04 |
| A6C G7A C13U C18U G19C G29C G30A | 0.1 |
| G5U G29U A41U | 0.06 |
| G5U G7C A26U G27A | 0.06 |
| G5U C18A C23G | 0.2 |
| A6C C13G C46G | 0.08 |
| G5U C8A C46A | 0.27 |
| G5U C18U U38C | 0.04 |
| G5U A25C C46U | 0.04 |
| A6C G7A C8A | 0.12 |
| G5U U9A A26G | 0.18 |
| A6C C15U C31U A41C C45U | 0.06 |
| G5U C8G G21C G22A C23G G29U C31U G40A G44A | 0 |
| G5U C18A G27U C46A | 0.03 |
| A6C G17A C45G | 0 |
| G5U G22C C31A | 0.05 |
| G5U G33U G36U | 0.04 |
| G5U G22U G44C C46A | 0.06 |
| G5U G17A G33C | 0.02 |
| A6C C13U G40A | 0.13 |

| Variant | self-cleavage |
| --- | --- |
| G5U U20C U38G | 0.01 |
| A6C A11U C13A A25G | 0.04 |
| A6C C37A C45A | 0.39 |
| G5U C8G U34G | 0.03 |
| A6C C8U A14C G27C G36A A41U | 0.05 |
| G5U G17U G33A | 0.12 |
| A6C C8U A12C A16G C37U | 0.01 |
| A6C C15A G22A C23G | 0.1 |
| A6C C8A A12U G33A | 0.02 |
| A6C A26C U32A G44C | 0.02 |
| G5U G21A G22C C23G A26U G33C C46A | 0.03 |
| G5U C15U G19U | 0.04 |
| A6C C8G A12G C42U | 0.03 |
| G5U G29A C31G C42A G44U | 0.01 |
| G5U C8U C23A G33A G35A | 0.02 |
| A6C A11G C13A | 0.01 |
| A6C G17A G35C A41G | 0.03 |
| G5U U20C G29A | 0.03 |
| A6C C10A G19U C37U C42U G44U | 0.01 |
| G5U G7C G30U G33U G35U | 0.03 |
| A6C G7C G17C U32C G33A U43C | 0.02 |
| A6C A26U G35C G40C | 0.07 |
| G5U C8U U9C U34A G40C U43A G44A | 0 |
| G5U G22U U32G | 0.12 |

| Variant | self-cleavage |
| --- | --- |
| G5U G21U C23G | 0.34 |
| A6C A11C G27C G35A | 0.03 |
| G5U G33U U34C | 0.05 |
| G5U G27A G33A | 0.05 |
| G5U U9C A39G | 0 |
| G5U C10A C23U C37U | 0.03 |
| G5U C18A U38A | 0.04 |
| A6C C8A C13A | 0.27 |
| A6C C45G C46G | 0.08 |
| G5U U9C C37A | 0.02 |
| A6C A14U G27U G29A C31G G36C A39C | 0.02 |
| G5U C13U A25U G35U C45G | 0.01 |
| A6C C8A A16C G17A C31U | 0.07 |
| A6C A11C G21U | 0.02 |
| G5U C15U G29U | 0.06 |
| G5U C13G C23U C45G | 0.02 |
| G5U G22C A25C | 0.02 |
| G5U C13U G35U | 0.02 |
| G5U U32C G33C | 0.03 |
| G5U G30A C42A | 1.66 |
| G5U G30C C37A | 0.04 |
| A6C C10A A16C U20A G30C | 0.01 |
| G5U G36A C42A | 0.25 |
| G5U A25G G40A | 0.03 |

| Variant | self-cleavage |
| --- | --- |
| A6C C18G A24C | 0.09 |
| A6C C15U A25C U34G | 0.01 |
| G5U G17C C46G | 0.03 |
| G5U C15A U32A | 0.1 |
| G5U U9G C10G C46G | 0 |
| A6C A25C G36A | 0.04 |
| G5U U43A C45U | 0 |
| A6C A26C U43G C45U | 0.02 |
| G5U C10U C15A G36U | 0.07 |
| A6C G7A C42U | 0.22 |
| A6C C8A U38G G40C | 0.04 |
| A6C C8A A26C U43A | 0.15 |
| A6C C13A C18U | 0.01 |
| A6C C23A A26U C45A | 0.25 |
| A6C C13A G30A U32C | 0.09 |
| G5U U20A G40U C42A | 0.1 |
| G5U C8A C10A C31G C37G | 0 |
| G5U G22A G35C G40U | 0.04 |
| G5U C10A G27U C31G C46G | 0.01 |
| G5U U9G A26G | 0.03 |
| A6C A11G C13A A14G C23A G36U | 0.01 |
| G5U U9G C18A G21A A25G U28C C31G | 0.03 |
| G5U G29U U43A | 0.02 |
